Source: US11187705B2, “Method for labeling specifically living microorganisms comprising the use of modified monosaccharide compounds” (CENTRE NATIONAL DE LA RECHERCHE SCIENTIFIQUE (CNRS), priority 2015, dated 2021)

Tested on: Pseudomonas fluorescens Migula
Conditions: 10 mM, 24 hours; ATCC 4927
Method: All strains were grown in a rotary shaker (160 rpm) at 30 or 37° C.
Overnight cultures were diluted 100 times in fresh medium (final volume 100 μl) containing Kdo-N3(I-1) or Ara-N3(Ia) (10 mM). Microorganisms were incubated at 30 or 37° C. for 24 hours and then washed 3 times with phosphate buffer (0.05 M, pH 7.5) by centrifugation at 13,000×g for 2 min at room temperature.
CuSO4 and TGTA, at a final concentration of 2 mM and 4 mM respectively, were mixed overnight in phosphate buffer (0.05 M, pH 7.5) at 37° C. under vigorous shaking. Next, aminoguanidine, sodium ascorbate and A488-yne (6a) or A594-yne (6b) at a final concentration of 4 mM, 5 mM and 1 mM respectively were added to CuSO4/TGTA overnight mix. […] Finally, cells were then washed 3 times with phosphate buffer by centrifugation at 14,000×g for 2 min at room and analyzed by microscopy.
Microorganisms were inoculated onto glass cover slips and covered with a thin (1 mm of thickness) semisolid 1% agar pad made with dilute LB (1/10 in phosphate buffer (0.05 M, pH 7.5)). Images were recorded with epifluorescence automated microscope (Nikon TE2000-E-PFS, Nikon, France) equipped with a CoolSNAP HQ 2 camera (Roper Scientific, Roper Scientific SARL, France) and a 100×/1.4 DLL objective. Excitation light was emitted by a 120 W metal halide light and signal was monitored using appropriate filters. […]

SMILES | labeling (fluorescence, metabolic incorporation of the chemical reporter)
[N-]=[N+]=NC[C@H]1OC(O)[C@@H](O)[C@@H]1O (stereo partly drawn) [Ara-N3, 5-Azido-5-deoxy-D-arabinofuranose] | +
[N-]=[N+]=NC[C@@H](O)C1OC(O)(C(=O)O)CC(O)[C@H]1O (some centres unmarked) [Kdo-N3, reference compound] | +
